# From the supplement of paper PMC11741623
# This is one part of the list. Interaction screen of human proteins with wild-type SARS-CoV-2 proteins by split-DHFR complementation in yeast, 1 µg/mL methotrexate. Value = fitness of the pair (three or more lineages) minus that of the viral protein without a human partner, on a scale set by negative (0) and fused positive (1) controls, mean of up to three cultures; higher = more likely to interact. Active = false discovery rate below 0.05 (one-sided t-test) in at least one culture. Nearly all pairs are not hits, and differences among them are mostly noise (correlation between cultures about 0.3); most hits were seen in one culture only. Human sequences are the Swiss-Prot entries looked up by gene name; the clone may be another isoform. NSP2 values were corrected by the authors for a growth advantage. Listed are human proteins with a hit and a random twelfth of the others.
# B1: IGHM, P01871 (protein)
# chain: GSASAPTLFPLVSCENSPSDTSSVAVGCLAQDFLPDSITFSWKYKNNSDISSTRGFPSVLRGGKYAATSQVLLPSKDVMQGTDEHVVCKVQHPNGNKEKNVPLPVIAELPPKVSVFVPPRDGFFGNPRKSKLICQATGFSPRQIQVSWLREGKQVGSGVTTDQVQAEAKESGPTTYKVTSTLTIKESDWLGQSMFTCRVDHRGLTFQQNASSMCVPDQDTAIRVFAIPPSFASIFLTKSTKLTCLVTDLTTYDSVTISWTRQNGEAVKTHTNISESHPNATFSAVGEASICEDDWNSGERFTCTVTHTDLPSPLKQTISRPKGVALHRPDVYLLPPAREQLNLRESATITCLVTGFSPADVFVQWMQRGQPLSPEKYVTSAPMPEPQAPGRYFAHSILTVSEEEWNTGETYTCVVAHEALPNRVTERTVDKSTEGEVSADEEGFENLWATASTFIVLFLLSLFYSTTVTLFKVK
# B2: FOXRED1, Q96CU9 (protein)
# chain: MIRRVLPHGMGRGLLTRRPGTRRGGFSLDWDGKVSEIKKKIKSILPGRSCDLLQDTSHLPPEHSDVVIVGGGVLGLSVAYWLKKLESRRGAIRVLVVERDHTYSQASTGLSVGGICQQFSLPENIQLSLFSASFLRNINEYLAVVDAPPLDLRFNPSGYLLLASEKDAAAMESNVKVQRQEGAKVSLMSPDQLRNKFPWINTEGVALASYGMEDEGWFDPWCLLQGLRRKVQSLGVLFCQGEVTRFVSSSQRMLTTDDKAVVLKRIHEVHVKMDRSLEYQPVECAIVINAAGAWSAQIAALAGVGEGPPGTLQGTKLPVEPRKRYVYVWHCPQGPGLETPLVADTSGAYFRREGLGSNYLGGRSPTEQEEPDPANLEVDHDFFQDKVWPHLALRVPAFETLKVQSAWAGYYDYNTFDQNGVVGPHPLVVNMYFATGFSGHGLQQAPGIGRAVAEMVLKGRFQTIDLSPFLFTRFYLGEKIQENNII
# B3: GPSM3, Q9Y4H4 (protein)
# chain: MEAERPQEEEDGEQGPPQDEEGWPPPNSTTRPWRSAPPSPPPPGTRHTALGPRSASLLSLQTELLLDLVAEAQSRRLEEQRATFYTPQNPSSLAPAPLRPLEDREQLYSTILSHQCQRMEAQRSEPPLPPGGQELLELLLRVQGGGRMEEQRSRPPTHTC
# B4: GPS2, Q13227 (protein)
# chain: MPALLERPKLSNAMARALHRHIMMERERKRQEEEEVDKMMEQKMKEEQERRKKKEMEERMSLEETKEQILKLEEKLLALQEEKHQLFLQLKKVLHEEEKRRRKEQSDLTTLTSAAYQQSLTVHTGTHLLSMQGSPGGHNRPGTLMAADRAKQMFGPQVLTTRHYVGSAAAFAGTPEHGQFQGSPGGAYGTAQPPPHYGPTQPAYSPSQQLRAPSAFPAVQYLSQPQPQPYAVHGHFQPTQTGFLQPGGALSLQKQMEHANQQTGFSDSSSLRPMHPQALHPAPGLLASPQLPVQMQPAGKSGFAATSQPGPRLPFIQHSQNPRFYHK
# Molecular target: SARS-CoV-2 E
# Experiment: yeast fitness gain over the viral ORF with no human partner (scaled fitness); higher = more likely to interact
# Experimental: (§1)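 Split mouse DHFR complementation in pooled diploid yeast: human ORFeome clones carry one fragment and viral ORFs the other; barcoded lineages compete in 1 µg/mL methotrexate and fitness is read by barcode sequencing in up to three cultures.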
row,Binder,yeast fitness gain
1,B1,inactive: 0.0894
2,B2,inactive: 0.0054
3,B3,inactive: 0.0337
4,B4,inactive: 0.105

# Molecular target: SARS-CoV-2 M
# Experiment: as above
# Experimental: as §1
row,Binder,yeast fitness gain
1,B1,inactive: -0.0296
2,B2,inactive: 0.04
3,B3,inactive: -0.0509
4,B4,inactive: 0.0246

# Molecular target: SARS-CoV-2 N
# Experiment: as above
# Experimental: as §1
row,Binder,yeast fitness gain
1,B1,inactive: 0.0817
2,B2,inactive: 0.00191
3,B3,inactive: 0.138
4,B4,inactive: -0.0418

# Molecular target: SARS-CoV-2 NSP1
# Experiment: as above
# Experimental: as §1
row,Binder,yeast fitness gain
1,B1,inactive: -0.0117
2,B2,inactive: 0.0368
3,B3,inactive: -0.043
4,B4,inactive: 0.144

# Molecular target: SARS-CoV-2 NSP10
# Experiment: as above
# Experimental: as §1
row,Binder,yeast fitness gain
1,B1,inactive: -0.00524
2,B2,inactive: 0.018
3,B3,inactive: 0.0321
4,B4,inactive: 0.0117

# Molecular target: SARS-CoV-2 NSP12
# Experiment: as above
# Experimental: as §1
row,Binder,yeast fitness gain
1,B1,inactive: 0.0283
2,B2,inactive: 0.0293
3,B3,inactive: -0.0709
4,B4,inactive: -0.04

# Molecular target: SARS-CoV-2 NSP13
# Experiment: as above
# Experimental: as §1
row,Binder,yeast fitness gain
1,B1,inactive: 0.0384
2,B2,inactive: 0.0346
3,B3,inactive: -0.0155
4,B4,inactive: 0.0162

# Molecular target: SARS-CoV-2 NSP14
# Experiment: as above
# Experimental: as §1
row,Binder,yeast fitness gain
1,B1,inactive: 0.079
2,B2,inactive: 0.0989
3,B3,inactive: -0.178
4,B4,inactive: 0.0105

# Molecular target: SARS-CoV-2 NSP15
# Experiment: as above
# Experimental: as §1
row,Binder,yeast fitness gain
1,B1,inactive: -0.0293
2,B2,inactive: -0.0106
3,B3,inactive: 0.0405
4,B4,inactive: -0.212

# Molecular target: SARS-CoV-2 NSP16
# Experiment: as above
# Experimental: as §1
row,Binder,yeast fitness gain
1,B1,inactive: 0.0306
2,B2,inactive: 0.0362
3,B3,inactive: -0.15
4,B4,inactive: 0.0335

# Molecular target: SARS-CoV-2 NSP2
# Experiment: as above
# Experimental: as §1
row,Binder,yeast fitness gain
1,B1,inactive: -0.0228
2,B2,inactive: -0.0335
3,B3,inactive: -0.216
4,B4,inactive: -0.133

# Molecular target: SARS-CoV-2 NSP4
# Experiment: as above
# Experimental: as §1
row,Binder,yeast fitness gain
1,B1,active: 0.392
2,B2,inactive: 0.00815
3,B3,inactive: 0.0233
4,B4,inactive: -0.237

# Molecular target: SARS-CoV-2 NSP5
# Experiment: as above
# Experimental: as §1
row,Binder,yeast fitness gain
1,B1,inactive: -0.0543
2,B2,inactive: 0.0297
3,B3,inactive: 0.0259
4,B4,inactive: 0.023

# Molecular target: SARS-CoV-2 NSP6
# Experiment: as above
# Experimental: as §1
row,Binder,yeast fitness gain
1,B1,inactive: 0.14
2,B2,inactive: -0.00387
3,B3,inactive: -0.0738
4,B4,inactive: -0.0477

# Molecular target: SARS-CoV-2 NSP7
# Experiment: as above
# Experimental: as §1
row,Binder,yeast fitness gain
1,B1,inactive: -0.152
2,B2,inactive: 0.0349
3,B3,inactive: -0.0715
4,B4,inactive: -0.0232

# Molecular target: SARS-CoV-2 NSP8
# Experiment: as above
# Experimental: as §1
row,Binder,yeast fitness gain
1,B1,inactive: -0.0704
2,B2,inactive: 0.0124
3,B3,inactive: -0.025
4,B4,inactive: 0.0265

# Molecular target: SARS-CoV-2 NSP9
# Experiment: as above
# Experimental: as §1
row,Binder,yeast fitness gain
1,B1,inactive: 0.0639
2,B2,inactive: -0.013
3,B3,inactive: -0.0598
4,B4,inactive: 0.0374

# Molecular target: SARS-CoV-2 ORF10
# Experiment: as above
# Experimental: as §1
row,Binder,yeast fitness gain
1,B1,inactive: 0.0432
2,B2,inactive: 0.0481
3,B3,inactive: 0.0327
4,B4,inactive: 0.0103

# Molecular target: SARS-CoV-2 ORF3A
# Experiment: as above
# Experimental: as §1
row,Binder,yeast fitness gain
1,B1,inactive: -0.0175
2,B2,inactive: 0.0133
3,B3,inactive: -0.0837
4,B4,inactive: 0.033

# Molecular target: SARS-CoV-2 ORF3B
# Experiment: as above
# Experimental: as §1
row,Binder,yeast fitness gain
1,B1,inactive: -0.0152
2,B2,inactive: -0.0304
3,B3,inactive: -0.046
4,B4,inactive: -0.00111

# Molecular target: SARS-CoV-2 ORF6
# Experiment: as above
# Experimental: as §1
row,Binder,yeast fitness gain
1,B1,inactive: -0.0282
2,B2,inactive: 0.0232
3,B3,inactive: 0.00633
4,B4,inactive: -0.0167

# Molecular target: SARS-CoV-2 ORF7A
# Experiment: as above
# Experimental: as §1
row,Binder,yeast fitness gain
1,B1,inactive: 0.282
2,B2,inactive: -0.0255
3,B3,inactive: 0.0187
4,B4,inactive: 0.0334

# Molecular target: SARS-CoV-2 ORF7B
# Experiment: as above
# Experimental: as §1
row,Binder,yeast fitness gain
1,B1,inactive: 0.32
2,B2,inactive: -0.0413
3,B3,inactive: -0.0334
4,B4,inactive: -0.0595

# Molecular target: SARS-CoV-2 ORF8
# Experiment: as above
# Experimental: as §1
row,Binder,yeast fitness gain
1,B1,inactive: 0.0141
2,B2,inactive: 0.0164
3,B3,inactive: -0.0056
4,B4,inactive: -0.012

# Molecular target: SARS-CoV-2 ORF9B
# Experiment: as above
# Experimental: as §1
row,Binder,yeast fitness gain
1,B1,inactive: 0.0601
2,B2,inactive: 0.0304
3,B3,inactive: 0.0769
4,B4,inactive: 7.7e-05

# Molecular target: SARS-CoV-2 ORF9Bwu (the 73-codon ORF)
# Experiment: as above
# Experimental: as §1
row,Binder,yeast fitness gain
1,B1,inactive: 0.0148
2,B2,inactive: 0.0719
3,B3,inactive: 0.0351
4,B4,inactive: 0.0333

# Molecular target: SARS-CoV-2 S
# Experiment: as above
# Experimental: as §1
row,Binder,yeast fitness gain
1,B1,inactive: 0.0866
2,B2,inactive: 0.0676
3,B3,inactive: 0.0394
4,B4,inactive: 0.0202
